Measured values reported in the supplement of paper PMC3334620.
Whole data set: some 33,000 sequences, median “E-score (-0.5 to 0.5)” near -0.011, cut for the highest 2% near 0.28. This is one part of the list.

target: T1, Gcr1 (UniProt P07261); experiment: PBM E-score (8-mer binding enrichment) (E-score (-0.5 to 0.5)); higher = stronger / more preferred TF binding; most listed sequences are background and not binding sites; conditions: protein concentration: 100 nM; construct: GST-full length
T1 sequence: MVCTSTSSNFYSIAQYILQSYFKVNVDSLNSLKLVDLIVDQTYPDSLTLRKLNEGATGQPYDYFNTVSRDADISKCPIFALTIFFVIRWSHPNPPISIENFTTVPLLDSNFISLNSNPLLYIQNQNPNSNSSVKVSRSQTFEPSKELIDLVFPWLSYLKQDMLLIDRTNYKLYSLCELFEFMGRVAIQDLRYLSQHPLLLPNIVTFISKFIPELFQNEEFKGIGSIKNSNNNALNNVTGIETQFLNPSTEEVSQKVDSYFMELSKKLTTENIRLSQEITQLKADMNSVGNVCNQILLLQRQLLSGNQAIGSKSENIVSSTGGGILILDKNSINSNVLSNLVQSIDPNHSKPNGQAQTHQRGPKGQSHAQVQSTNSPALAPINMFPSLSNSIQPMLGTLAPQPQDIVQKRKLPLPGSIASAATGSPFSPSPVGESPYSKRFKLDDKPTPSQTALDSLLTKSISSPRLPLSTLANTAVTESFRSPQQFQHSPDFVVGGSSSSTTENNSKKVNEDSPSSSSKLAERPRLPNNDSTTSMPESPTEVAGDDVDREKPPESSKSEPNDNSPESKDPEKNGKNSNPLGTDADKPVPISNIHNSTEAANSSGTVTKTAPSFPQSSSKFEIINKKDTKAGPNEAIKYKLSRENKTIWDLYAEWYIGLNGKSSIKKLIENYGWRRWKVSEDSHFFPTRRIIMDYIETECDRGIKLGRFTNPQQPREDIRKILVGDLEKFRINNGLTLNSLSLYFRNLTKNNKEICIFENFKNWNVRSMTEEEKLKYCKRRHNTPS
How it was run: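 Each ungapped eight-base word and its reverse complement, pooled, received an E-score from the Universal PBM Analysis Suite. Underlying scans, normalised with masliner, recorded fluorescent anti-GST bound to GST-tagged yeast transcription factors. These were applied at about 100-200 nM to universal all-10-mer Agilent arrays double-stranded by primer extension.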

Row | Sequence | PBM E-score
1 | ATTTTCAC | 0.0633
2 | CCAGTCCC | 0.0688
3 | ATCAACAT | 0.0342
4 | AGGTAAGA | -0.112
5 | CTAGCGAG | -0.272
6 | AATTATAG | 0.245
7 | GCGTATGA | -0.107
8 | AACCAATG | -0.0131
9 | AAGCCAAC | -0.0303
10 | GTCTAAAC | -0.0511
11 | CAATTCAG | 0.0423
12 | CTACTATC | 0.146
13 | ATCAGTAC | -0.0928
14 | CAGACCCG | -0.19
15 | ACGGGCAA | 0.107
16 | CCCCATGC | 0.00744
17 | AAGAACGT | -0.147
18 | TTCGTCAA | 0.0927
19 | TAGCATGA | -0.0978
20 | TATTCTAA | 0.12
21 | TTCATCAA | -0.0519
22 | ATTCAATA | 0.0589
23 | CGATCGAC | -0.154
24 | GACCAGGA | -0.108
25 | TGGGTGAA | -0.0393

Row | Sequence | PBM E-score
26 | GCGGCTAA | -0.164
27 | ACAGGAAT | 0.307
28 | AGGATAAG | -0.00711
29 | CACCTGAG | -0.0795
30 | CGAATATC | 0.0967
31 | TCATCAAA | -0.127
32 | TCGTTAAA | 0.122
33 | CACATCTC | 0.0324
34 | TCGATAGA | -0.224
35 | AAGTGGGG | -0.0252
36 | GAGCAATA | 0.0781
37 | AGCACTTC | -0.125
38 | CATTAGTA | 0.0179
39 | ACCCATCC | -0.0821
40 | CCTTCCGC | -0.0943
41 | AATAGTTA | 0.0311
42 | ACGCCTAC | -0.159
43 | GAATGACC | -0.183
44 | ATTAACAA | 0.19
45 | GAACACCA | -0.131
46 | AGAGCCCG | 0.00139
47 | ACCGTTAT | -0.113
48 | ACTCATCA | -0.0684
49 | AATCGATA | -0.0363
50 | AGGCACCA | 0.136

Row | Sequence | PBM E-score
51 | CCTCCAAG | 0.0179
52 | CATTCTGC | -0.13
53 | AATCATGC | -0.165
54 | CTCAAGCA | -0.0307
55 | TAAACAGA | 0.113
56 | ATCACCTA | -0.0775
57 | ACACATGC | -0.0451
58 | GAGGATCC | 0.239
59 | GTCTCGTA | -0.03
60 | ATGAGATC | -0.139
61 | CAAATTAA | 0.07
62 | CAAAACGA | -0.024
63 | AACGGTGA | -0.196
64 | AATACAAT | -0.0331
65 | ATCCGTTC | -0.0718
66 | CACGACGA | -0.106
67 | AAGTGGAG | 0.141
68 | ACGCAACC | 0.121
69 | ACTCATAA | -0.0566
70 | AGCTCATG | -0.0748
71 | CTCTAAAG | 0.154
72 | CGGAGTCC | 0.281
73 | CGCGGCTA | 0.018
74 | GCATTGCA | -0.00476
75 | AAGGGCAC | -0.16

Row | Sequence | PBM E-score
76 | ATCCCTAG | 0.0838
77 | CACTGAAC | -0.00372
78 | ACGCGGTC | -0.067
79 | ACCACCTA | 0.102
80 | CTGCCCCC | -0.15
81 | AAAGGTAG | -0.0137
82 | CTGACGCC | -0.0359
83 | CTTGCCTC | 0.0353
84 | ATGCCCTA | -0.0726
85 | CCTCTTCG | -0.0896
86 | ACGTGGAG | 0.0848
87 | CCGGCTAC | 0.0508
88 | AGACTGTC | -0.219
89 | CCCACGAG | -0.0381
90 | CCACTAGA | 0.235
91 | CGCCCCAC | 0.247
92 | AACGAGCC | -0.301
93 | AGCTTGCC | -0.277
94 | AGGACTCC | 0.195
95 | GCGATGGA | 0.00971
96 | AGTATATA | 0.127
97 | GAGGTATC | 0.0162
98 | TCGAACGA | 0.0237
99 | ATACTGAC | -0.0716
100 | CTGAAAAC | 0.136

Row | Sequence | PBM E-score
101 | CATAAATA | 0.187
102 | CGGTGTAC | -0.0918
103 | CCAAATAG | 0.202
104 | ACTCCTTC | 0.0272
105 | ACCCCTCT | -0.0888
106 | CGGCTTTC | -0.0315
107 | AGCTAGAG | -0.226
108 | ACTGTCAG | -0.061
109 | CGCAATCC | -0.0145
110 | AATTACTC | 0.0587
111 | GTTAGGCA | -0.0488
112 | GAGGTCTA | -0.128
113 | ACCGTGTG | 0.0726
114 | AACATCGT | 0.143
115 | CGTTGGCA | -0.025
116 | CCTACCGA | -0.124
117 | AAAGGGTG | -0.0719
118 | ACGGATTG | -0.0505
119 | GATGCTGC | 0.276
120 | ACATGTGC | -0.0727
121 | CGGGTCGA | -0.0506
122 | GATAAACC | -0.164
123 | GGGGTTGA | -0.131
124 | CTAGAGAC | -0.0538
125 | CTCGGAAG | 0.0573

Row | Sequence | PBM E-score
126 | GACCTCTC | -0.0922
127 | AACTACCG | -0.121
128 | AATTTCGT | 0.203
129 | AGATAAAA | 0.144
130 | AACGCAGC | 0.0364
131 | AAGGTAGT | 0.141
132 | CGCTTGAG | -0.163
133 | AAGCGACA | -0.0306
134 | GACACATA | -0.104
135 | AGGAACTC | 0.182
136 | AGTAACGA | -0.143
137 | ACTGTTCA | -0.163
138 | CACTCACA | -0.183
139 | AGGTCCAT | -0.0602
140 | TCGCTAAA | -0.138
141 | ATTATATA | -0.0551
142 | AGGCCGCA | -0.0993
143 | CCGACACA | -0.151
144 | GCCGGTGA | 0.0355
145 | AATCGCCG | 0.0873
146 | CACCGTCC | -0.216
147 | CGATATCA | -0.111
148 | CCATCAAG | -0.153
149 | ACCATCCA | -0.0435
150 | CCCCATGA | 0.00788

Row | Sequence | PBM E-score
151 | AGAAAACG | -0.107
152 | GGACTCCA | 0.345
153 | CATACCTC | -0.0593
154 | GGCAAACC | -0.157
155 | AGCGTTCA | 0.0304
156 | AGCTATGA | -0.162
157 | AAATCTGA | 0.0984
158 | CATCGGAC | -0.129
159 | GCGGTGAA | -0.156
160 | TAACCTCA | -0.148
161 | CACGTATA | 0.0962
162 | CCTGGGCA | -0.022
163 | ATTAAGCG | 0.00694
164 | ACGTCTAT | -0.0908
165 | CGTCCGGA | -0.0678
166 | ATGATTGG | 0.0187
167 | GCTACGAA | -0.131
168 | AAACAGCC | -0.118
169 | ACTCATCC | -0.00995
170 | ACTAAAGC | 0.00585
171 | AAAGCGTA | -0.0323
172 | GCACGATA | 0.0926
173 | CACATTAA | -0.0572
174 | TAGATCAA | 0.0916
175 | CAATCTGG | -0.0284

Row | Sequence | PBM E-score
176 | AAAGTGAT | 0.0418
177 | GACCCACC | -0.227
178 | GATACCCA | -0.0925
179 | AACGCTCC | -0.276
180 | ATCAGGCA | -0.0639
181 | ACCTCTCT | -0.107
182 | AGCCTGAC | -0.349
183 | GCATGTAA | 0.0856
184 | ACATGGGT | 0.102
185 | TCATAGGA | 0.155
186 | CTGACCGC | -0.0762
187 | AAGGATAG | -0.13
188 | GGAACTCA | 0.00914
189 | AGTAGCAC | 0.287
190 | TCATGGAA | 0.037
191 | ACAAGGGT | -0.0153
192 | ACGCCTCG | -0.13
193 | CTTAGCTA | -0.029
194 | CTTCTCTC | -0.0493
195 | ATCACCAG | 0.124
196 | GGTAGTCA | -0.00589
197 | ACTGAAAA | 0.17
198 | CGCGGATA | 0.14
199 | ACGAACGC | -0.14
200 | ACGTTAGG | -0.0499

Row | Sequence | PBM E-score
201 | TAAAGAAA | 0.162
202 | AGCTACGC | -0.0614
203 | CTAGCCAC | -0.154
204 | CCATGAAA | 0.156
205 | GCGTTGTA | -0.00107
206 | ACAGACCA | 0.0488
207 | ATAGAACC | 0.102
208 | ACTAGTAT | 0.213
209 | CAGAGGAC | -0.0228
210 | CCGGAGAC | -0.0141
211 | ACGGATCT | -0.189
212 | GTGGGCGA | -0.0253
213 | GTATTCGA | 0.0462
214 | CACACCAG | -0.0989
215 | ACGACGCA | 0.138
216 | AATCCCCA | 0.0469
217 | CGGACTAA | -0.0788
218 | AGTTTTGC | 0.011
219 | TAGCTAAA | -0.126
